These results are taken from the supplement of paper PMC4604168 (melanoma cell lines).

The other results are listed elsewhere or left out. Repeats are few or missing, and single values can be far off.
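Note: cells treated in 1,536-well plates, then fixed and DAPI-stained, with nuclei counted from automated high-throughput microscope images.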

For this test, the system named is WM451Lu. The test is described as follows: cell count relative to DMSO control; melanoma cells; higher = more viable cells. To be noted: library dose: standard library concentration; 72 h.
With `C/C(O)=C(\C#N)C(=O)Nc1cc(Br)ccc1Br` + O=c1cc(-c2cccc3c2Sc2ccccc2S3)oc(N2CCOCC2)c1 [KU55933] (first compound 10 µM, partner dose 5 µM), the cell count is 92.7%.

Molecule `CN(NC(=O)CC(=O)NN(C)C(=S)c1ccccc1)C(=S)c1ccccc1` + Cc1cc(SCc2sc(-c3ccc(C(F)(F)F)c(F)c3)nc2C)ccc1OCC(=O)O [GW0742] (first compound 0.03 µM, partner dose 10 µM) showed a cell count of 92.2%. As for `CCCCCCCCCCCCCCCCCCOP(=O)([O-])OC1CC[N+](C)(C)CC1` [Perifosine] + C/C(O)=C(\C#N)C(=O)Nc1cc(Br)ccc1Br [LFM-A13] (first compound 2 µM, partner dose 10 µM), the cell count came to 79.6%. The same measure for `Cc1cc(SCc2sc(-c3ccc(C(F)(F)F)c(F)c3)nc2C)ccc1OCC(=O)O` + Cn1cc(/C=C2\C(=O)Nc3cccnc32)c2ccccc21 [GW441756] (first compound 10 µM, partner dose 2 µM): 121%; for `Cc1cc(SCc2sc(-c3ccc(C(F)(F)F)c(F)c3)nc2C)ccc1OCC(=O)O` + Oc1nc(-c2ccc(C(F)(F)F)cc2)nc2c1CSCC2 [XAV939] (first compound 10 µM, partner dose 10 µM): 96.7%. The same measure for `CC(=O)O[C@@]12CO[C@@H]1C[C@H](O)[C@@]1(C)C(=O)[C@H](O)C3=C(C)[C@@H](OC(=O)[C@H](O)[C@@H](NC(=O)OC(C)(C)C)c4ccccc4)C[C@@](O)([C@@H](OC(=O)c4ccccc4)[C@H]21)C3(C)C` [Docetaxel] + Cc1cc(SCc2sc(-c3ccc(C(F)(F)F)c(F)c3)nc2C)ccc1OCC(=O)O [GW0742] (first compound 0.0005 µM, partner dose 10 µM): 30%.
